# Assay results as given in the supplement of paper PMC3334620.
# Over roughly 33,000 sequences, “E-score (-0.5 to 0.5)” has its median near -0.053; the highest 2% begin near 0.37. This is one part of the list.
# Target: Hap1 (UniProt P0CE41)
# Test: PBM E-score (8-mer binding enrichment) (E-score (-0.5 to 0.5)); higher = stronger / more preferred TF binding; most listed sequences are background and not binding sites
# Conditions: protein concentration: 200 nM; construct: GST-DNA-binding domain
# In short: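 Universal all-10-mer Agilent arrays, fresh or stripped once, were converted to double-stranded form by primer extension. GST-tagged yeast transcription factors from PURExpress in vitro transcription/translation, full-length or DNA-binding domain only, were applied at about 100-200 nM and detected with fluorescent anti-GST. After masliner normalisation, the Universal PBM Analysis Suite scored each ungapped eight-base word together with its reverse complement by E-score.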
# UniProt P0CE41, sequence (P0CE41 whole entry): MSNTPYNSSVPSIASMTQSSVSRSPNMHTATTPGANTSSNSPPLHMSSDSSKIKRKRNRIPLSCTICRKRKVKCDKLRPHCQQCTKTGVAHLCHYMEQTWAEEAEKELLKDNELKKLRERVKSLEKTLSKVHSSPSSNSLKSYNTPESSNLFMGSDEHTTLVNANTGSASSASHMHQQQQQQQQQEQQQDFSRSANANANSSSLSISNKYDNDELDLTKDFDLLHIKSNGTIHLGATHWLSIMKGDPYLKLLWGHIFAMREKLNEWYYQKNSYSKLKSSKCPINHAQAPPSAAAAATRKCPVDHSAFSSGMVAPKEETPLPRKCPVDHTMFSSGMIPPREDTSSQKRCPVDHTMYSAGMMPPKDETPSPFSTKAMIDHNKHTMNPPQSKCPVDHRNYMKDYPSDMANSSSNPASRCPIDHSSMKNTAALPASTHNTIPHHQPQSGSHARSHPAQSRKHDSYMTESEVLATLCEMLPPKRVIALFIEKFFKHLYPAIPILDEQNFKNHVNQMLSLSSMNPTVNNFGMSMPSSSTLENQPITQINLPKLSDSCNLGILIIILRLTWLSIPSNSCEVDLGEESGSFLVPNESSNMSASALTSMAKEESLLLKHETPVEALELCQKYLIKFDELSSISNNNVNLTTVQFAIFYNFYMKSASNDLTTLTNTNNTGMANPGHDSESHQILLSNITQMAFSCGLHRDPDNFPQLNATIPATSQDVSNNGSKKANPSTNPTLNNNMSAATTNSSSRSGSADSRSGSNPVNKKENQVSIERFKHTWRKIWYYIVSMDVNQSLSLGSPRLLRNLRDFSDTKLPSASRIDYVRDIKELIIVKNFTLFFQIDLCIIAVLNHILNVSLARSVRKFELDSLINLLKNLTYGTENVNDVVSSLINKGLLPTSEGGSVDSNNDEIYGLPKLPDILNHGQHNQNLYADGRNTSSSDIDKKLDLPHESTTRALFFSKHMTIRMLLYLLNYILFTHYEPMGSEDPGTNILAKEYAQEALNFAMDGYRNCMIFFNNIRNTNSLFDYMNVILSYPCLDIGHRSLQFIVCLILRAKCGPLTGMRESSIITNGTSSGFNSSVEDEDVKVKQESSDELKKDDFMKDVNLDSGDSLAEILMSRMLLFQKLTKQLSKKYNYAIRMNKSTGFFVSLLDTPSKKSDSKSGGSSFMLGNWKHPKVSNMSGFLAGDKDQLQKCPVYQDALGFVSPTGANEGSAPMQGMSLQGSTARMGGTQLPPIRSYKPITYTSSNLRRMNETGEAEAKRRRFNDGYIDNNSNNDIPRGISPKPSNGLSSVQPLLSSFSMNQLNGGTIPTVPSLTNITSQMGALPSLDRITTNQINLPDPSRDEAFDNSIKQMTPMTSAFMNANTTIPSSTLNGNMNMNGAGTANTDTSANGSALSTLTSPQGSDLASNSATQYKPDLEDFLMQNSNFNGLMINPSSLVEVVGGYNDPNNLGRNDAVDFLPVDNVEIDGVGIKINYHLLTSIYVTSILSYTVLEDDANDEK
row,Sequence,PBM E-score
1,CCACAGTC,-0.356
2,AAACATAT,0.174
3,ACCGTTCC,0.156
4,CCGTGAGC,0.102
5,AGAGACGA,-0.121
6,GCAGTGGC,-0.0499
7,CACCAGTA,-0.131
8,ATAGGGGC,0.022
9,GAACTGGC,0.171
10,AGACCACA,-0.115
11,CCGAATCG,0.314
12,AGAAGAGC,-0.191
13,ACTACGCG,0.117
14,AAACGTCG,0.00491
15,AATTATGT,-0.108
16,AGTTGGAA,-0.129
17,AATCGGTA,0.138
18,TCACCTAA,-0.0983
19,CATTCGCA,-0.217
20,GAATGTGA,0.00267
21,GAGAGCTC,-0.0379
22,ATCAGTTC,-0.0966
23,AGATCCAG,-0.0735
24,AATCGCGT,0.111
25,CTCCACTA,-0.00467

row,Sequence,PBM E-score
1,AGTCGCAA,-0.113
2,ATTAATAG,-0.099
3,CCCACCAA,-0.0745
4,AAGGCCCT,-0.0905
5,CTCAAAGC,-0.0476
6,ACCTTAGC,-0.165
7,CCGTAAGA,0.269
8,CTAGAACA,0.0858
9,TGAGCGAA,0.0926
10,AACCCCGA,0.456
11,GGGCCCCC,0.0151
12,AGCGTACG,-0.104
13,AGGGTCAT,-0.156
14,AACGTCGT,0.0706
15,CTGGCTGA,-0.14
16,GTGTAGTA,-0.0397
17,GACCTAAA,0.163
18,AGGTAGGA,-0.196
19,GAAAGCAA,0.127
20,ACACGATA,0.174
21,TGGTCCAA,-0.044
22,CTAGGGAG,-0.232
23,GACCTCAA,-0.168
24,CAGCGAAG,-0.156
25,CCCACCGC,0.153

row,Sequence,PBM E-score
1,ATCTCCTG,0.178
2,CAACCGAG,0.23
3,GCACGCCA,-0.113
4,ATTGTTCG,0.215
5,GCTCGAAA,0.0881
6,GCGGCGCC,0.189
7,TCTCTAAA,0.00367
8,CCATATGA,-0.173
9,ATAGAGGC,-0.302
10,ATTCAGGA,-0.0935
11,CTTCACGA,-0.341
12,AGTATCGC,0.174
13,AAAGAACT,-0.114
14,GCATGGTA,-0.122
15,CTTTTCGA,-0.16
16,GTATCGAA,-0.152
17,CGAACAAA,0.171
18,TATTCGCA,-0.094
19,AGTGCGAT,-0.0914
20,TCTGCCCA,-0.043
21,GGTTTTGA,0.0654
22,GGTTCAGA,-0.127
23,AGAGGACC,-0.219
24,CTTTTGGA,-0.0089
25,TCCAGAGA,-0.228

row,Sequence,PBM E-score
1,CCGATACC,0.377
2,TCAATAAA,-0.181
3,CCCTCACA,-0.259
4,ACCATCTC,-0.032
5,CCTCCTGC,-0.171
6,AACCTTGG,-0.067
7,CGCATTAA,0.116
8,CTGGACAA,-0.215
9,CAACCCAG,-0.211
10,ACCACCGA,0.288
11,CGACAAAA,0.0973
12,CAGACCAC,-0.211
13,TACCGAGA,0.209
14,AAGCCCCG,0.285
15,AATTTGAC,-0.103
16,GACTCAGA,-0.173
17,TTGAGCAA,-0.259
18,GCAGAGAC,-0.201
19,GAGTACGC,-0.138
20,CGGTTAAA,0.313
21,ACTGCATC,-0.168
22,GAGGTTGA,-0.139
23,ATTATAAA,0.0229
24,CCTAGCGA,-0.312
25,CGATGATC,0.0483

row,Sequence,PBM E-score
1,ATGTCACG,-0.0431
2,ACTCGCGG,0.0324
3,AGGGAGGC,-0.108
4,AAGACGAG,-0.116
5,GAGGCAAA,0.0536
6,AGCGTTGA,-0.0757
7,GACGGTGC,0.0455
8,GTGGCCAC,0.203
9,ATGAGGTG,-0.156
10,GCAGGGTA,-0.0894
11,TGGACACA,-0.0471
12,AATCCCTG,-0.18
13,ACTGGAAC,-0.00282
14,TTTATAAA,0.16
15,ACTACACT,-0.219
16,ACGATAAC,0.0651
17,ATCGCTCG,0.205
18,AGTCGATG,-0.127
19,AAGCCAGT,-0.328
20,CTCAACCA,-0.154
21,CGACCCCA,0.105
22,ACGGTTGG,-0.0421
23,ACCAGTAC,-0.0787
24,ACTAGGCT,-0.132
25,CACGCACC,-0.14

row,Sequence,PBM E-score
1,AGGCTAGA,-0.121
2,CCTTCTAG,-0.341
3,CTGTCTGC,-0.296
4,AATCATCC,0.0211
5,AAACCGTA,0.146
6,ATTCGCTA,-0.0993
7,AGGGCGCC,0.106
8,GATATAGA,0.0385
9,CATACGGC,0.162
10,CTCATCAA,0.0456
11,CGATAGCA,0.112
12,ATGATCTA,-0.0838
13,TCCGTAGA,0.297
14,TAAACCTA,-0.00275
15,CAGGCTTA,-0.0377
16,CTGGGTAC,-0.0802
17,AGTGGAAC,0.0266
18,AGGTCACT,-0.221
19,ACGGTAGG,-0.0364
20,AGCGAACC,-0.0488
21,GCATGGCC,0.0578
22,TCGTACGA,-0.105
23,GCCTTCCC,-0.0724
24,ATATAATC,0.0272
25,AACCACGG,0.105

row,Sequence,PBM E-score
1,ATTGGGCC,0.0392
2,CCCAGCGG,0.0427
3,CGGCATTA,0.459
4,AGGAGGAC,-0.265
5,CCGCTCTA,0.0538
6,CAATGGGG,-0.0711
7,CTGGGGGA,-0.226
8,CATAGTTC,0.0169
9,CGAACACC,0.0437
10,AATACGAG,-0.0536
11,AATGAACG,-0.204
12,AACCTACC,-0.0334
13,AACCATCC,0.0689
14,AACAAAAT,-0.148
15,CAGGCTCC,0.0525
16,CAGCCCAC,-0.189
17,ACTCTCGA,-0.184
18,AGCTAGGG,-0.106
19,ACAGTCCG,0.258
20,ACCCTATG,-0.304
21,CGTATTAA,0.0796
22,GCGGGGCC,0.234
23,ACTAAGTC,-0.0961
24,TATAAAGA,-0.202
25,CCCGGCCC,0.341

row,Sequence,PBM E-score
1,ACTATCGC,0.104
2,CTTCTTAC,0.0532
3,AAAGCTGT,-0.0581
4,GCCAATAA,-0.0084
5,CCTACGAG,-0.221
6,CCTAGAGA,-0.296
7,GCAGCTGC,0.0228
8,TCGGCGCA,0.27
9,AAAAACCC,0.134
10,CTAGTGTA,-0.271
11,GATGCTCC,0.206
12,CTATCAAA,-0.0068
13,CTCCGGGC,0.341
14,CCCCGAGC,0.351
15,TCAAGCCA,-0.0578
16,AGATGCTG,-0.205
17,GCGTGCCC,-0.0226
18,GAAAGGTA,-0.0295
19,AACATAAC,-0.034
20,CCGATTAG,0.312
21,ATCCTGGG,-0.0727
22,CCATTTAG,-0.115
23,CACCTGGA,-0.258
24,TCTTGTAA,-0.0768
25,ACGGAAGG,0.143

row,Sequence,PBM E-score
1,CTCGGTTA,0.296
2,CTGTCCAA,-0.122
3,GGTCTGAC,0.0513
4,CTTACTTC,0.0715
5,CGAAAGTA,0.0968
6,GGGCGCCA,0.0886
7,CCACCCTA,-0.165
8,CCATTTCG,0.11
9,GACTCGGA,0.405
10,CTTTATAA,-0.215
11,ACTCGACA,-0.0599
12,ACTGGTAT,-0.0718
13,ACCGGGTC,0.194
14,CTACGATC,-0.131
15,ACATTTAC,-0.173
16,CGGCGTAG,0.0917
17,ACAATTGC,-0.0911
18,ATTCAGAC,-0.301
19,CCTAGTGA,-0.0778
